From ChEMBL document CHEMBL4888484, “Replenishing the malaria drug discovery pipeline: Screening and hit evaluation of the MMV Hit Generation Library 1 (HGL1) against asexual blood stage Plasmodium falciparum ,using a nano luciferase reporter read-out” (2022)
“And” between values parts separate entries of the source, which are not always exact repeats. Equal entries are not always repeated. Among all 150,000 compounds or so, about 540 (0.36%) showed an effect of 50% or more. This is one part of the list.

System: Plasmodium falciparum
Experiment: Primary screen in NF54 nanoGlo assay, in single point, at 2uM, 72h; a lower Z score goes with more inhibition
Assay type: functional, Erythrocyte
Settings: timepoint 72 hour

Row | SMILES | % Inhibition [%] | Z score | % Inhibition (2 µM) | Z score (2 µM)
1 | Cc1cc(C(=O)N(CC2CCC2)CC(F)(F)F)[nH]n1 | -10 | 1.63 |  | 
2 | O=C(NCCNc1ccccc1)c1cccc(-n2ccnn2)c1 | 1 | -0.17 |  | 
3 | O=C(c1coc(COc2cccc(F)c2)n1)N1CC[C@@H]2CCCC[C@H]2C1 | -7 | 1.14 |  | 
4 | Cc1cc(NC(=O)N2CCCN(C)CC2)nn1-c1ccc(Cl)cc1 | -13 | 1.64 |  | 
5 | CC(=O)N[C@H]1C[C@H](c2nnc(CN(C)Cc3ccc4nsnc4c3)n2C)C1 | -13 | 2.43 |  | 
6 | COc1ccc(S(=O)(=O)NC2CCN3CCCCC23)cc1Cl (centres undefined) | -32 | 3.72 |  | 
7 | O=C(NCc1csc(=O)[nH]1)[C@H]1CCCO1 | -8 | 0.98 |  | 
8 | CCOC(=O)CCN[C@@H](C(=O)OCC)c1ccccc1 | -8 | 1.58 |  | 
9 | CCc1nc(-c2ccccc2)nc(N2CCN(C[C@@H](O)CC)CC2)c1Cc1ccc(F)cc1 | -11 | 2.07 |  | 
10 | COc1cc(NC(=O)N2CCC(Cn3ccnc3C(C)C)CC2)cc(OC)c1OC | 0 | -0.07 |  | 
11 | CCc1ccc(C(=O)N2CCc3nnn(C4CC(C)C4)c3C2)cc1 (centres undefined) | 1 | -0.19 |  | 
12 | O=C(CCn1cncn1)Nc1ccc2c(c1)OCCO2 | -2 | 0.29 |  | 
13 | O=C(Cc1ccc(O)cc1Cl)N1CC2CC=CCC2C1 (centres undefined) | 31 | -3.47 |  | 
14 | C[C@H](NC(=O)c1cnsn1)c1nn(C)cc1O | -8 | 1.66 |  | 
15 | CNC(=O)c1nnsc1-n1cnc2ccccc21 | 35 | -3.99 |  | 
16 | COc1cnc(NCc2cccc3c2OCC3)nc1 | -20 | 3.05 |  | 
17 | CCN(CC)C(=O)[C@@H]1CCCN1S(=O)(=O)CC(C)(C)CC#N | 19 | -2.5 |  | 
18 | O=S(=O)(CC1CCCC1)NCC1(CO)CCOCC1 | -10 | 1.29 |  | 
19 | Cc1ccc2c(c1)Oc1ccc(C)cc1C(N1CCCN(C(=O)Nc3cccc(Cl)c3)CC1)=N2 | 2 | -0.35 |  | 
20 | CC[n+]1cc(N2CCCC2)nc(-c2ccc(Br)cc2)n1 |  |  | -14% and -9% | 1.22 and 1.33
21 | Cc1cc(N(C)Cc2ccc(N)nc2)ncn1 | -7 | 0.84 |  | 
22 | c1csc(-c2ccnc3nc(-c4ccncc4)nn23)c1 | -12 | 1.63 |  | 

Row | SMILES | % Inhibition [%] | Z score | % Inhibition (2 µM) | Z score (2 µM)
23 | CCN(CC)S(=O)(=O)N(C)Cc1cc(Br)ccc1F | 0 | 0.02 |  | 
24 | CN(C)c1cccc(C(=O)N2C[C@@H](CN3CCCCCC3)[C@@H](CO)C2)c1 | -10 | 1.28 |  | 
25 | COc1ccc(CNC(=O)c2sc(Nc3ccc(C)cc3C)nc2C)c(OC)c1 | 39 | -4.4 |  | 
26 | O=C1NC2(Cc3ccccc3C2)C(=O)N1CC1(c2cccc(F)c2)CC1 | -13 | 2 |  | 
27 | CCn1cc(Cl)c(-c2nnc(-c3cccc(C(F)(F)F)c3)o2)n1 | 30 | 0.02 |  | 
28 | O=C(CCc1ccco1)Nc1ccc2c(c1)OCCCO2 | -6 | 0.94 |  | 
29 | COc1ccc(NC(=O)c2ccccc2NC(=O)CN(C)Cc2ccc(OC)cc2OC)cc1 | -12 | 2.28 |  | 
30 | COCCOc1ccc(-c2ccc(N(C)C)nn2)cc1 | -8 | 0.96 |  | 
31 | COc1ccc(-c2nc(N3CCCC3)nc3nn(C)c(N)c23)cc1 | -3 | 0.48 |  | 
32 | COCCOC1CCN(Cc2cc(C(C)(C)C)[nH]n2)CC1 | 3 | -0.63 |  | 
33 | O=C(Cn1c(-c2ccncc2)nc2ccccc21)Nc1nc2ccccc2s1 | 13 | -1.69 |  | 
34 | CCCN1CCN(C(=O)N[C@@H](Cc2ccccc2)c2ccccc2)CC1=O | -15 | 2.08 |  | 
35 | O=C(NC1(c2ncon2)CCOCC1)c1cc2ccccn2c1 | -4 | 0.42 |  | 
36 | C[C@H]1COCCN1C(=O)c1n[nH]c2ccccc12 | -1 | 0.15 |  | 
37 | CNS(=O)(=O)CC(=O)N(Cc1cc2c(s1)CCC2)C(C)C | -15 | 1.37 |  | 
38 | CCOC(=O)C(NC(=O)c1cccnc1OCC)C(=O)OCC | -13 | 2.01 |  | 
39 | Cc1c([C@H](C)NC(=O)c2cc(C3CC3)n(C)n2)cnn1C | -7 | 1.15 |  | 
40 | COc1cccc(-n2nc3c(=O)n(Cc4ccccc4Cl)nc(C)c3c2C)c1 | 1 | -0.16 |  | 
41 | CCC1CN(C(=O)NC2CCCC23OCCO3)CC(C)O1 (centres undefined) | -1 | 0.14 |  | 
42 | O=C(NCc1cc2n(n1)CCCNC2)c1ccc2c3c([nH]c2c1)CCCC3 | -4 | 0.68 |  | 
43 | COc1cc2nc(C)sc2cc1NC(=O)C1C2C=CC(C2)C1C(=O)O (centres undefined) | 34 | -3.86 |  | 
44 | CCCc1cc(Nc2ccc(C(=O)NC[C@H]3CCCO3)cc2)n2nc(-c3cccnc3)nc2n1 | 40 | -5.32 |  | 

Row | SMILES | % Inhibition [%] | Z score | % Inhibition (2 µM) | Z score (2 µM)
45 | CCc1onc(C)c1[C@@H]1CCCN1C(=O)c1ccc(C)cc1 | -7 | 0.88 |  | 
46 | Cc1cccc(C)c1OC[C@H](N)C(C)(C)C | -3 | 0.29 |  | 
47 | CCCC(=O)Nc1cc(N(C)C)nc2c1CCC2 | -12 | 1.77 |  | 
48 | O=C(c1cccc(-n2ccnn2)c1)N1CCC(n2ccnn2)CC1 | -4 | 0.65 |  | 
49 | CN(C)c1ccc(CNc2ncnc3sccc23)cn1 | -23 | 3.25 |  | 
50 | CCN(CC)S(=O)(=O)c1ccc(N2CCOCC2)c(NC(=O)CCC2CCCC2)c1 | -4 | 0.3 |  | 
51 | Nc1nnnn1NC/C=C/c1ccc(Cl)cc1 | 2 | -0.21 |  | 
52 | COc1cccc2ncnc(N3CC(=O)N(C)[C@@H](C)C3)c12 | -5 | 0.97 |  | 
53 | CC(C)(C)OC(=O)N[C@@H]1c2ccccc2NC1(C)C | -2 | 0.16 |  | 
54 | O=C(NC1CC2(C1)CC2(F)F)[C@H]1NCC12CCCC2 (some centres undefined) | -3 | 0.31 |  | 
55 | CCOC(=O)c1ccc(N[C@H](c2ccc(Cl)cc2)c2c(C)n(C)n(-c3ccccc3)c2=O)cc1 | -2 | 0.21 |  | 
56 | Cc1cc(C(=O)N(Cc2cocn2)Cc2cocn2)nc(C)n1 | -10 | 1.77 |  | 
57 | COc1cc(CNc2nc3ccccc3n2CCN2CCOCC2)cc(OC)c1OC | -14 | 1.25 |  | 
58 | N#Cc1c(N2CCCC2)ncnc1N1CCN(c2ccccn2)CC1 | -12 | 1.2 |  | 
59 | Cc1ccnc(NC(=O)CN(C)S(C)(=O)=O)c1Br | 9 | -1.67 |  | 
60 | CCN(CCC(F)(F)F)C(=O)c1[nH]nc(C2CC2)c1Cl | -1 | 0.07 |  | 
61 | O=C(N[C@H]1CCCc2ccccc21)C1CCOCC1 | -8 | 1.48 |  | 
62 | CCN1CCCc2cc(CCNC(=O)C(=O)NCC(C)C)ccc21 | 1 | -0.17 |  | 
63 | Cn1nc(C2CC2)cc1NC(=O)N[C@H](c1cccnc1)C(F)(F)F | 2 | -0.25 |  | 
64 | Cc1ccc(C(=O)N2CCN(C(=O)c3ccsc3)CC2)cn1 | -15 | 1.56 |  | 
65 | Cc1onc(-c2ccccc2)c1C(=O)N1CC(C)S(=O)(=O)C(C)C1 (centres undefined) | -6 | 0.74 |  | 
66 | Nc1ccc(-c2sc(N)nc2-c2ccc(Oc3ccccc3)cc2)cc1 | -7 | 1.05 |  | 

Row | SMILES | % Inhibition [%] | Z score | % Inhibition (2 µM) | Z score (2 µM)
67 | Cc1nnc(NC(=O)[C@@H]2CCCN2c2ncnc3sccc23)s1 | -3 | 0.54 |  | 
68 | CC(C)(C)OC(=O)N1CCC[C@H]1c1nnc(NCc2ccco2)o1 | -7 | 1.05 |  | 
69 | O=C(c1ccccc1)N(Cc1cc(-c2ccccc2)on1)C1CC1 | -10 | 1.18 |  | 
70 | CC(C)[C@@H]1N(C(=O)Nc2ccccc2N2CCCCC2=O)CC12CC=CC2 | -9 | 1.73 |  | 
71 | Cc1c(F)cccc1NC(=O)Cc1nc(Cc2ccc(Cl)cc2)n[nH]1 | -5 | 0.62 |  | 
72 | CCn1nc(C)c(CNS(=O)(=O)c2ccc(Cl)s2)c1C | -6 | 1.08 |  | 
73 | CCOc1ncc(C(=O)N(CC)c2ccc(OC)nc2)cc1Cl | -12 | 1.04 |  | 
74 | Cc1ccccc1C(=O)Nc1sc(-c2ccccc2)c(C)c1C(=O)N1CCOCC1 | 8 | -1.04 |  | 
75 | O[C@H]1CNCCN(Cc2cnc(-c3cccc4ccccc34)nc2)C1 | 11 | -1.48 |  | 
76 | Cc1ccc(Cl)cc1N1CCN(c2ncnc(N3CCOCC3)c2C#N)CC1 | -25 | 2.53 |  | 
77 | Cc1cccnc1[C@H](C)NC(=O)C1(C)COC1 | -9 | 0.92 |  | 
78 | Cc1ccc(OCC(=O)Nn2c(=O)[nH]c3ccccc3c2=O)c(C(C)C)c1 | -5 | 0.65 |  | 
79 | O=C(Cn1nnnc1CN1CCCCCC1)N1CCN(Cc2ccc(F)cc2)C(=O)C1 | -6 | 1.18 |  | 
80 | CC1CCN(CCCc2noc(C(C)(C)NS(C)(=O)=O)n2)CC1 | -8 | 1.4 |  | 
81 | Cc1ccc(C(=O)NCC(F)(F)F)cc1N | -6 | 0.55 |  | 
82 | Cn1cc(C(O)CC2CCCN2CCCOc2ccc3c(c2)OCO3)cn1 (centres undefined) | -13 | 1.68 |  | 
83 | CCc1nc(C)c(-c2c(-c3ccccc3)ncn2CCn2cc(C)nn2)[nH]1 | 2 | -0.29 |  | 
84 | Cc1nsc(NCc2ccc3c(c2)nc(C2CC2)n3C)n1 | 2 | -0.2 |  | 
85 | Nc1cc2cc(-c3cccc(C(=O)NCC4CCNCC4)c3)ccc2cn1 | -10 | 1.48 |  | 
86 | CCC(C)(C)C(=O)Nc1c(C)cc(C)cc1C | -5 | 0.89 |  | 
87 | Cc1nc(Cc2ccccc2F)[nH]c(=O)c1CCO | 2 | -0.39 |  | 
